Source: publication PMC4336329 (PLoS ONE, 2015)
The campaign covered roughly 310,000 compounds. About 14,000 (4.5%) showed an effect of 50% or more. The effect is printed as a negative number. Some of the results follow.

molecular target: human ether-à-go-go-related gene (hERG) potassium channel (human, UniProt Q12809); test: primary screen, population patch clamp on CHO cells stably expressing hERG
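Note: peak tail current of the secondary pulse compared with the same well before compound.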

human ether-à-go-go-related gene (hERG) potassium channel, sequence (Q12809 whole entry, looked up): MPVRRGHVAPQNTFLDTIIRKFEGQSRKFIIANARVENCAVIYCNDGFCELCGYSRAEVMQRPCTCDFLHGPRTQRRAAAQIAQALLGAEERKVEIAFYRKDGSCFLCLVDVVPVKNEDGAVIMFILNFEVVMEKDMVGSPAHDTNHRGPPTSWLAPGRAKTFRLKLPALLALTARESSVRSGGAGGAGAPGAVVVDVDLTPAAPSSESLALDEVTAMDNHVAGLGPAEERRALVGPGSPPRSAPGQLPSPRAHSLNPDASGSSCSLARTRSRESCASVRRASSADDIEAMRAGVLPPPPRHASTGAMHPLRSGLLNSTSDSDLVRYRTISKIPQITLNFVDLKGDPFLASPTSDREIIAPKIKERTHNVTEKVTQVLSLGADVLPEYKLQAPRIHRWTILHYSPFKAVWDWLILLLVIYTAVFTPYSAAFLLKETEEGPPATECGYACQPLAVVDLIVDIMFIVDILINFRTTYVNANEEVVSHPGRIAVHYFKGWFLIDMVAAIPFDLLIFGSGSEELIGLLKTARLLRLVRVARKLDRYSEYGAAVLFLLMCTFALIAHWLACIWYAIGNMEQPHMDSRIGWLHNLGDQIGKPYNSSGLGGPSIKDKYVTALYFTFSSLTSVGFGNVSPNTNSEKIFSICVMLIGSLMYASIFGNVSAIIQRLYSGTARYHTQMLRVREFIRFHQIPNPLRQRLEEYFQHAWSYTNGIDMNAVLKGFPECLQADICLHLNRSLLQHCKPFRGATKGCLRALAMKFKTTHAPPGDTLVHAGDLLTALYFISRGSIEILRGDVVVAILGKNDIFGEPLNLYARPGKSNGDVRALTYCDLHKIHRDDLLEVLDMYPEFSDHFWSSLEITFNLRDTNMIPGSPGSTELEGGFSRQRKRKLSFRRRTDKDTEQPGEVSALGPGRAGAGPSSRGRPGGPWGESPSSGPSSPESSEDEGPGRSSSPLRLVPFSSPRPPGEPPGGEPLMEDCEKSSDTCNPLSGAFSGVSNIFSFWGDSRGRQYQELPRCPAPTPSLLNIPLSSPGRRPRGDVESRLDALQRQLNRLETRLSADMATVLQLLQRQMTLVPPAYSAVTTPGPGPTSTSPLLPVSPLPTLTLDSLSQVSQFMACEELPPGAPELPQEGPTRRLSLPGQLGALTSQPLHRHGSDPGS

Compound	hERG current change (%, negative = inhibition) at 10uM
CC(c1ccon1)N(C)Cc1cn(C)nc1-c1ccc2c(c1)OCCO2 (stereo not drawn)	13.5%
C=CCCCCCCCCC(=O)N1CCN(c2cc3c(cc2F)c(=O)c(C(=O)O)cn3CC)CC1	5.07%
CC(=NCc1cccnc1)c1c(O)n(-c2ccccc2C)c(=O)[nH]c1=O	0.273%
CCN(CC)C(=O)Cn1cc(/C=C(\C#N)C(=O)N2CCN(c3ccccc3)CC2)c2ccccc21	-13%
CC1(c2ccc3ccccc3c2)NC(=O)NC1=O (stereo not drawn)	13.3%
Cc1cc(Br)c(OCc2ccc(C(=O)N/N=C3\CC(=O)CC(C)(C)C3)cc2)c(Br)c1	5.31%
O=C1CC(NS(=O)(=O)c2cccnc2)CN1c1ccc(F)cc1 (stereo not drawn)	0.051%
Cc1nc2ccc(Cc3ccc4nc(C)[nH]c4c3)cc2[nH]1	3.33%
O=C(O)c1ccccc1SCc1cn2cc(Br)ccc2n1	15.6%
O=C(NCCN=C1NS(=O)(=O)c2ccccc21)c1ccc(S(=O)(=O)N2CCOCC2)cc1	-7.36%
CCOC(=O)N1CCN(CCC(=O)Nc2ccc(F)c(F)c2)CC1	0.204%
COc1ccc2cc(CN(CCc3ccccc3)Cc3nnnn3Cc3ccco3)c(=O)[nH]c2c1	-29.7%
NC(=O)c1ccc(NC(=O)c2cnc3ccccc3n2)cc1	5.85%
COc1ccc(-n2c(C)nc3cc(C(=O)NCc4ccco4)ccc32)cc1	-22.9%
N#CC(C#N)=Cc1cn(-c2ncc(C(F)(F)F)cc2Cl)c2ccccc12	6.8%
CCCOc1cc(C)c(S(=O)(=O)n2nnc3ccccc32)cc1C	6.53%
O=C(c1cccc(S(=O)(=O)N2CCCC2)c1)c1nnc(-c2ccncc2)o1	5.42%
O=C(NC(=S)N1CCCc2ccccc21)c1ccccc1	14.7%
Cc1ccccc1NCc1ccc([N+](=O)[O-])s1	-38.8%
CCC(=O)Nc1cccc(NC(=O)CSc2nnc(-c3ccc(NS(C)(=O)=O)cc3)n2C)c1	0.13%
O=C(CSc1nc2ccccc2o1)NC(=O)NCc1ccco1	-18.2%
CSc1ccccc1NC(=O)c1c(C)noc1C	-2.59%

Compound	hERG current change (%, negative = inhibition) at 10uM
O=C(NN1C(=O)/C(=C/C=C/c2ccco2)SC1=S)c1ccccc1O	1.86%
COc1ccc(/C=C/C(=O)OC2CCCN(C)C2)cc1.Cl (stereo not drawn)	-8.09%
O=C(/C=C/N1CCOCC1)c1ccc(-c2ccccc2)cc1	-33.9%
CCOc1cc(NC(=S)NCCCN2CCOCC2)c(OCC)cc1NC(=O)c1ccccc1C	-12.1%
CC(C)(C)c1ccc(C(=O)NCCn2c(N)c(C#N)c3nc4ccccc4nc32)cc1	4.74%
CCC(CC)COC(=O)C1=C(C)NC(=O)NC1c1cc(OC)ccc1OC (stereo not drawn)	4.85%
COc1ccc(/C=N\NC(=O)c2ccccc2[N+](=O)[O-])cc1COc1c(F)c(F)c(F)c(F)c1F	8.06%
COc1ccc(NC(=O)C(=O)NNC(=O)c2cccs2)cc1	17.9%
O=C(COC(=O)c1cc(S(=O)(=O)N2CCOCC2)ccc1F)NCc1ccco1	15%
CC12CN3CN(C1)CC(c1ccccc1)(C3)C2=O	12.7%
COc1ccccc1OCCN1C(=O)S/C(=C\c2ccco2)C1=O	-7.56%
Cc1cnc(C(=O)N2CCCC(C(=O)c3ccc(Cl)cc3C)C2)cn1 (stereo not drawn)	-4.61%
N/C(=N\OC(=O)c1ccc2ccccc2c1)c1ccccc1Cl	18.2%
NS(=O)(=O)c1ccc(CCNC(=O)CC(c2ccccc2)c2ccccc2)cc1	-33.3%
O=C(NCc1cccs1)C1CC(=O)N(c2ccc(F)cc2)C1 (stereo not drawn)	-17.1%
C=C(C)[C@@H]1CC=C(C(=O)O)CC1	-3.03%
COc1ccc(NC(=O)CN2CCCC2c2cccs2)cc1S(=O)(=O)N1CCCCC1 (stereo not drawn)	-32.3%
CCc1nnc(NC(=O)CN2CCN(Cc3ccc(C)cc3)CC2)s1	-57.6%
NC(=O)c1ncc(C(F)(F)F)cc1Oc1ccc(C(F)(F)F)cc1	24.9%
O=C(NCc1cccs1)Nc1ccc(Cl)cc1	-21.2%
CC1(C(=O)N2CCC(CC3CC(c4ccc(Cl)cc4)=NO3)(C(=O)NCC3CCCCC3)CC2)CC1 (stereo not drawn)	-40.8%
Cc1ccc(-c2nnc(SCc3nc(N)nc(Nc4ccccc4C)n3)n2N)cc1	-20.3%

Compound	hERG current change (%, negative = inhibition) at 10uM
COc1ccc(C(=O)NC(=S)NNC(=O)c2ccc3ccccc3n2)cc1	28.4%
Cc1ccc(NC(=O)/C(C#N)=C/c2cccs2)c(C)c1	-3.5%
COc1ccc(CNC(=O)c2cc(-c3cccs3)on2)cc1	-2.38%
Cc1noc(C)c1CS(=O)(=O)Cc1ccc(Cl)cc1	8.25%
O=C1CCCC2=C1C(c1cccc(Br)c1)n1nc(-c3ccco3)nc1N2 (stereo not drawn)	7.56%
Cc1cccc(C)c1NC1=NC(=S)N(c2ccc(N(C)C)cc2)C1(C)C	8.36%
O=c1c([N+](=O)[O-])cccn1Cc1ccccc1Cl	6.54%
CCOc1cccc(OCC)c2c(C)[n+](CC3CCCO3)c(C)c1-2.[O-][Cl+3]([O-])([O-])[O-] (stereo not drawn)	-36.9%
CCOC(=O)C1=C(CC)OC(N)=C(C#N)C1c1ccc(OC)cc1OC (stereo not drawn)	-0.063%
O=C(Oc1ccc(/C=N/NC(=O)c2ccccn2)cc1)c1ccc(Br)cc1	2.54%
CCN1C(=O)CC(NNC(=O)c2ccc(Cl)cc2)C1=O (stereo not drawn)	7.34%
O=C1CN=C(c2ccccc2)c2ccccc2N1Cc1ccc(C(F)(F)F)cc1	-0.479%
CCN(CC)C(=O)c1ccc2c(c1)N(Cc1ccccc1)C(=O)CS2=O (stereo not drawn)	4.74%
COc1ccccc1NC(=O)CSc1nncn1-c1ccccc1	3.98%
Cc1ccc(/C=C2/C(=O)N=C(N)N2C)s1	15.5%
C=CCNC(=S)NNC(=O)c1cc(-c2cccnc2)nc2ccccc12	20.1%
CC(=O)N1CCc2cc(S(=O)(=O)NC(C(=O)Nc3nc(C)cs3)C(C)C)ccc21 (stereo not drawn)	8.38%
O=C1NC(=S)NC(=O)C1C/C=C/c1ccccc1	10.6%
Cc1ccc(NC(=O)CSc2nn(-c3ccc(Cl)cc3)c(=S)s2)cc1S(=O)(=O)N(C)C	18.7%
CCN1CCN(CCCN(Cc2ccco2)C(=S)Nc2cc(Cl)ccc2C)CC1	-61.9%
CC1Sc2ccc(S(=O)(=O)CCC(=O)N3CCc4ccccc43)cc2NC1=O (stereo not drawn)	23.1%
CCS(=O)(=O)c1nc(S(=O)(=O)c2ccc(Cl)cc2)c(N2CCc3ccccc3C2)s1	7.91%

Compound	hERG current change (%, negative = inhibition) at 10uM
O=C(Nc1ccc(Cl)c([N+](=O)[O-])c1)c1ccco1	7.92%
CN(c1ccccc1)S(=O)(=O)c1cc(C(=O)c2nccn2C)ccc1Cl	-48.4%
Cc1cc(NC(=O)c2cccc([N+](=O)[O-])c2)no1	11.5%
Cc1cccc(C(=O)NN2C(=O)C3C(c4ccccc4)C=CC(c4ccccc4)C3C2=O)c1 (stereo not drawn)	3.83%
O=C(COC(=O)c1cc([N+](=O)[O-])ccc1N1CCOCC1)c1ccc(F)cc1	-55.9%
S=C(Nc1ccccc1Cl)N1CCN(c2ccccn2)CC1	19.2%
CC(C)NS(=O)(=O)c1ccc(CCC(=O)O)cc1	-11.6%
CCc1ccccc1N(CC(=O)NC1CCCCC1)C(=O)CCCC(=O)Nc1ccccn1	-27.6%
CC[N+](CC)(CC(=O)Nc1c(C)cccc1C)Cc1ccccc1.O=C([O-])c1ccccc1	14.7%
O=C(Nc1cccc(Cl)c1Cl)c1ccc(-c2ccccc2)cc1	6.92%
COc1ccc(-c2[nH]nc3oc(=O)c(CCO)c(C)c23)cc1.O=C(O)C(=O)O	22.8%
Cc1ccc(NC(=O)CN(C)Cc2cc(=O)n3ccsc3n2)cc1	-7.66%
COc1ccc2cc(-c3nc4ccccc4n3C)c(=O)oc2c1	3.68%
Cc1cccc(C)c1NC(=O)CCCCCC1NC(=O)NC1C (stereo not drawn)	3.52%
CN(CC(=O)Nc1ccc(F)cc1)C(=O)c1cc2c(s1)CCCCC2	8.87%
Cc1cc(C)cc(N2C(=O)CCN(Cc3ccccc3)C2=O)c1	12.9%
NCc1oc(-c2ccccc2)cc1C(=O)O	16.6%
COc1ccc(C2=CC(c3c(C)nn(-c4ccccc4)c3Cl)n3nnnc3N2)cc1OC (stereo not drawn)	11.4%
CCN1CCc2c(OCc3ccccc3)cccc2C1=O	-15.6%
COC(=O)C1CCN(Cc2cn(Cc3ccccc3)nc2-c2cc3ccccc3o2)CC1	-75.9%
CCOc1cc(CNc2ccc3cn[nH]c3c2)ccc1OC	-1.03%
